From the RNAGym collection of RNA variant scans (doi:10.7554/elife.90254)
The source gives no read counts; variants with many changes may rest on few reads.

B1: LINE1-mini (parent)
chain: GGCAGAGCUCAACACAGCGUGGCAAAGUGGCUGUGGCUAGACUGCC

Variants of: B1
Experiment: self-cleavage, relative activity (ratio to wild type); higher = more cleavage; in vitro, sequencing; the parent is a self-cleaving ribozyme
Variant A6U A12G C42U G44A C45A has a self-cleavage of 0.06. A6U C18G G33C U43A showed a self-cleavage of 0.01. In the case of A6G C31U U34C, the self-cleavage is reported as 0.01. A6G U20C C45U showed a self-cleavage of 0.14. In the case of A6U G7A A16G G17A G36A, the self-cleavage is reported as 0.28. Variant A6G C13U A14C G29U A39U has a self-cleavage of 0.08. A6U A25C U34C showed a self-cleavage of 0.19. Variant A6U A12C U20C A41C has a self-cleavage of 0.04. Variant A6U C37A C46G has a self-cleavage of 0.14. With A6G C10U A39C C42U the self-cleavage was 0.06. A6U G19U A24C gave a self-cleavage of 0.22. A6U C45G C46U gave a self-cleavage of 1.41. With A6C U34A G40C the self-cleavage was 0.03. A6G A14U U43A C46U showed a self-cleavage of 0.06. With A6U A12U U28G the self-cleavage was 0.03. A6C U9A U20C U32G showed a self-cleavage of 0.04. Variant A6G C10A G27A G44A has a self-cleavage of 0.14. For A6G G19U U28A C42G, the self-cleavage was 0. A6U G17A A24C U32A C42G showed a self-cleavage of 0.01. Variant A6G G19U G22U U32A C45A has a self-cleavage of 0.42. Variant A6G C18A U28A G35U has a self-cleavage of 0.03. A6U C15U G22A C23G G27A showed a self-cleavage of 0.81. Variant A6G A11U C13G has a self-cleavage of 0.02. With A6G C10U C13A A14U C31G the self-cleavage was 0.06. Variant A6G U20A G21C has a self-cleavage of 0.08. With A6G G7U U9A A11G G29A U34A the self-cleavage was 0.02. For A6U A12U G27A, the self-cleavage was 0.07. A6U A14C C23A showed a self-cleavage of 0.33. With A6G U9C C10U U20C A25C C37U the self-cleavage was 0.01. A6G C23G G27U showed a self-cleavage of 0.04. A6U C13A U20A G22U gave a self-cleavage of 0.21. Variant A6U A11C C23G U28C G29A A39U has a self-cleavage of 0.01. Variant A6U A14C C18G G30A G44C has a self-cleavage of 0.35. For A6G U9G G29A, the self-cleavage was 0.01. Work on A6G A12C G21U G35A yielded a self-cleavage of 0.02. For A6G C15A A16C C42G, the self-cleavage was 0.02. Variant A6G A11G C13A A41G G44A has a self-cleavage of 0.02. In the case of A6G G7C U43G, the self-cleavage is reported as 0.01. For A6U A11U C15G A39U, the self-cleavage was 0. In the case of A6G G29A C31A, the self-cleavage is reported as 0.04. A6G C13A A14U A25U showed a self-cleavage of 0.08. A6C U9C A25G C45G gave a self-cleavage of 0.03. For A6G G21U A24G G30C U32A U34G, the self-cleavage was 0.03. With A6G G7U A14C A16U G27U the self-cleavage was 0.04. With A6G U9A U32A C37U the self-cleavage was 0.02. Work on A6G A12C C31G C37U G44A C45G yielded a self-cleavage of 0. In the case of A6G G19U G36A C45U, the self-cleavage is reported as 0.04. Variant A6G C8U G30A has a self-cleavage of 0.13. A6G A16C C37A showed a self-cleavage of 0.54. In the case of A6U G17A G40C C42G, the self-cleavage is reported as 0.12. A6G G19U G29U showed a self-cleavage of 0.05. Work on A6U C8G A25G G40A yielded a self-cleavage of 0.47. Variant A6U A14G A24G G30U G36A U43C has a self-cleavage of 0.02. A6G A14C C46A showed a self-cleavage of 0.04. A6G C10G A24U A41U gave a self-cleavage of 0.02. With A6G U9G G22C G30A the self-cleavage was 0.08. With A6U A11C A41U G44U the self-cleavage was 0.02. A6G U9A C10U C37A C42U gave a self-cleavage of 0.05. In the case of A6G G29A A41U, the self-cleavage is reported as 0.12. With A6U C8G C10U U32C A41U the self-cleavage was 0.01. With A6G C15G U34A the self-cleavage was 0.03. Work on A6G G33C C37A yielded a self-cleavage of 0.05. For A6G G27U G29C C46U, the self-cleavage was 0.08. With A6U C18U A25C G27C the self-cleavage was 0.29. Variant A6G G7C G33U has a self-cleavage of 0.03. A6G G7C C13U U28G G33A showed a self-cleavage of 0.08. With A6G C18A G22A U32A the self-cleavage was 0.01. A6G C8G G36C C42U U43C showed a self-cleavage of 0.02. In the case of A6U A11C C18A G29A, the self-cleavage is reported as 0.07. Variant A6U A12U C13A C15U C23U has a self-cleavage of 0.03. A6U C8A C18U C45U showed a self-cleavage of 0.12. In the case of A6G G21C G40C, the self-cleavage is reported as 0.03. A6U A11U U20G G21U U43C gave a self-cleavage of 0.01. Variant A6U C10U U28C A39C has a self-cleavage of 0.14. A6G G30C A39U gave a self-cleavage of 0.07. In the case of A6G A16U G19U C45U, the self-cleavage is reported as 0.02. In the case of A6U C18A C46A, the self-cleavage is reported as 0.58. Variant A6G C23U G29U A41U has a self-cleavage of 0.18. Work on A6C U9G G35A G36U G44A yielded a self-cleavage of 0.01. Work on A6G G21C A24U U38C yielded a self-cleavage of 0.05. Variant A6U C31G G35A U38A has a self-cleavage of 0.02. For A6U A12C A16G C46G, the self-cleavage was 0. For A6U C42G C46A, the self-cleavage was 0.03. Work on A6G C18G C37A yielded a self-cleavage of 0.06. Variant A6G C18U G21U G44C has a self-cleavage of 0.16. A6U G7U G22A C42U gave a self-cleavage of 0.02. A6U C23A U28C A39C A41C showed a self-cleavage of 0.16. Variant A6G C13U C31G has a self-cleavage of 0.01. With A6U C8G U28A the self-cleavage was 0.07. Work on A6G A25G U34C yielded a self-cleavage of 0.02. For A6U C31G C46A, the self-cleavage was 0.32. Variant A6G C13U G19U A25C C31U C46G has a self-cleavage of 0.02. In the case of A6U C10G G27A, the self-cleavage is reported as 0.05. In the case of A6G A11G C13G G21A C31A G36C A41U, the self-cleavage is reported as 0.02. Work on A6G C8G A12U G33C U43C yielded a self-cleavage of 0. In the case of A6G U34A G35U, the self-cleavage is reported as 0.01. With A6G G7A C37A the self-cleavage was 0.02. For A6G C18A U20A G36A C45A, the self-cleavage was 0.01. A6G G29A U32C gave a self-cleavage of 0.07. Variant A6C U9C G19U G33A has a self-cleavage of 0.03. For A6U C10G U20G, the self-cleavage was 0.04. Variant A6G A26C G36A U38A G40U has a self-cleavage of 0.17. With A6G G7C C31U the self-cleavage was 0.06. In the case of A6U G7U A25U G36A G44U, the self-cleavage is reported as 0.11. In the case of A6G G30U G40C C46G, the self-cleavage is reported as 0.11. Work on A6U G17U A25G yielded a self-cleavage of 0.01. For A6G C37G G40A, the self-cleavage was 0.05. Variant A6U G19U G36U has a self-cleavage of 0.06. With A6U A12U C13G C37U the self-cleavage was 0.08. A6U A14U G36A showed a self-cleavage of 0.27. Variant A6G A11G G17U G44A has a self-cleavage of 0.01. A6G A11U C15A G27A showed a self-cleavage of 0.01. A6G C8A A11U G22A A26U U28G showed a self-cleavage of 0.01. In the case of A6G A24G A25G A39G, the self-cleavage is reported as 0.01. In the case of A6U A25C U28C, the self-cleavage is reported as 0.15. Variant A6G U28G G30C C37G U38C C46A has a self-cleavage of 0.05. Variant A6G U20A A26G U43C has a self-cleavage of 0.02. In the case of A6G G17C C31A, the self-cleavage is reported as 0.02. Variant A6G U20A G22A has a self-cleavage of 0.02. A6U A11G A26C gave a self-cleavage of 0.02. Work on A6G C37U C46A yielded a self-cleavage of 0.03. For A6U C10A C15G G21U U38A C42U, the self-cleavage was 0.03. A6U G7A C8U G21A G33C gave a self-cleavage of 0.58. A6G C23A G35U showed a self-cleavage of 0.05. In the case of A6G C37U U43A, the self-cleavage is reported as 0.01. A6G A11G A12C G27U showed a self-cleavage of 0.02. A6U G7U G21U C42A showed a self-cleavage of 0.29. In the case of A6U C18G G21C G22A A25U, the self-cleavage is reported as 0.19. With A6U A25C G27U G33U A39U the self-cleavage was 0.07. Work on A6U C10A A12U G21A G40U yielded a self-cleavage of 0. Variant A6G G22U A24U C31U G33A G35U C42G has a self-cleavage of 0.04. For A6G C10U A16G C18U C37G, the self-cleavage was 0.02. For A6G C8U C13G G19U, the self-cleavage was 0.16. Work on A6G A16C U32C G35U G40U C42A yielded a self-cleavage of 0.02. Variant A6U C18A G22A G40C has a self-cleavage of 0.28. With A6U G7U U38A the self-cleavage was 0.07. For A6G U9A G17C U20A G22U G44U, the self-cleavage was 0. A6G C15G G27U U38A showed a self-cleavage of 0.03. For A6C U9G A26G U28G G29A, the self-cleavage was 0.06. With A6G C10A A25C the self-cleavage was 0.02. A6U A14G C15G C31U U32C U34C C37A showed a self-cleavage of 0. A6G G17U C23U G29U A41C gave a self-cleavage of 0.06. In the case of A6G G21C A24C G36U C46A, the self-cleavage is reported as 0. A6U C8G C31A C42A gave a self-cleavage of 0.02. A6U C13A U34A U43A showed a self-cleavage of 0.12. For A6U G7U C10G, the self-cleavage was 0.01. Variant A6G C10A G30A G35U A39G C42G has a self-cleavage of 0.1. With A6G C10U A24U the self-cleavage was 0.03. In the case of A6U C15G A16U U20A U28G, the self-cleavage is reported as 0.21. A6G G17A G27A gave a self-cleavage of 0.19. In the case of A6G A11U G40A, the self-cleavage is reported as 0.02. For A6U C15A G17U G29C, the self-cleavage was 0.02. For A6U G17U C23A G30U G36U, the self-cleavage was 0.14. Variant A6G G19A G22U G27U G36U has a self-cleavage of 0.03. In the case of A6U A24G G36U C37U, the self-cleavage is reported as 0.01. Work on A6U C13U A14U U32C G44U yielded a self-cleavage of 0.19. With A6C U28A G30A G36U C37A C45A C46G the self-cleavage was 0.06. A6G A12C A41C showed a self-cleavage of 0.03. Work on A6U C8U C45G yielded a self-cleavage of 0.55. For A6G G19U A25G U32A, the self-cleavage was 0.09. Work on A6G A11C G40U yielded a self-cleavage of 0. Work on A6G C10G A14G G36U C37A yielded a self-cleavage of 0.01. A6U A12C A39C U43A gave a self-cleavage of 0.01. A6U C8G A14G A26G U34A G35C gave a self-cleavage of 0.03. A6U C15G G19A gave a self-cleavage of 0.26. In the case of A6G U9G G22A G27A U32A G35C U43G, the self-cleavage is reported as 0.01. A6U C15A G22C U34C showed a self-cleavage of 0.07.
